Reference: PubChem BioAssay AID1347165 (National Center for Advancing Translational Sciences (NCATS), 2019)
The whole screen tested about 220,000 compounds, of which about 5,700 (2.6%) were called active. The shares of active, inactive and inconclusive entries below differ from those in the screen. Calls follow the shape of the dose curve; as a rule, active = well fitted inhibition curve with a large enough effect; inconclusive = small, poorly fitted or top-dose-only effect; inactive = no such curve, though single readings can be large or run the other way. Potencies beside an inconclusive call are fits to weak or partial responses and may not hold up.
Also: nearly all actives have a fitted effect of over 70% in size.
For activity change, negative = inhibition in this document: 0% is about no effect.
Potency is read from the fitted curve at half-maximal effect; tags tell the direction and shape of the fitted curve.

What follows are compounds tested against Lysine-specific demethylase 5B (Homo sapiens) (UniProt Q9UGL1) (assay: Primary screen for KDM5B Histone Demethylases FDH-coupled qHTS). Settings: FDH-coupled NADH fluorescence (FDH is formaldehyde dehydrogenase); activity change, negative = inhibition: at 57.7 µM (top of the series) unless noted.
UniProt Q9UGL1, sequence (Q9UGL1 whole entry, looked up): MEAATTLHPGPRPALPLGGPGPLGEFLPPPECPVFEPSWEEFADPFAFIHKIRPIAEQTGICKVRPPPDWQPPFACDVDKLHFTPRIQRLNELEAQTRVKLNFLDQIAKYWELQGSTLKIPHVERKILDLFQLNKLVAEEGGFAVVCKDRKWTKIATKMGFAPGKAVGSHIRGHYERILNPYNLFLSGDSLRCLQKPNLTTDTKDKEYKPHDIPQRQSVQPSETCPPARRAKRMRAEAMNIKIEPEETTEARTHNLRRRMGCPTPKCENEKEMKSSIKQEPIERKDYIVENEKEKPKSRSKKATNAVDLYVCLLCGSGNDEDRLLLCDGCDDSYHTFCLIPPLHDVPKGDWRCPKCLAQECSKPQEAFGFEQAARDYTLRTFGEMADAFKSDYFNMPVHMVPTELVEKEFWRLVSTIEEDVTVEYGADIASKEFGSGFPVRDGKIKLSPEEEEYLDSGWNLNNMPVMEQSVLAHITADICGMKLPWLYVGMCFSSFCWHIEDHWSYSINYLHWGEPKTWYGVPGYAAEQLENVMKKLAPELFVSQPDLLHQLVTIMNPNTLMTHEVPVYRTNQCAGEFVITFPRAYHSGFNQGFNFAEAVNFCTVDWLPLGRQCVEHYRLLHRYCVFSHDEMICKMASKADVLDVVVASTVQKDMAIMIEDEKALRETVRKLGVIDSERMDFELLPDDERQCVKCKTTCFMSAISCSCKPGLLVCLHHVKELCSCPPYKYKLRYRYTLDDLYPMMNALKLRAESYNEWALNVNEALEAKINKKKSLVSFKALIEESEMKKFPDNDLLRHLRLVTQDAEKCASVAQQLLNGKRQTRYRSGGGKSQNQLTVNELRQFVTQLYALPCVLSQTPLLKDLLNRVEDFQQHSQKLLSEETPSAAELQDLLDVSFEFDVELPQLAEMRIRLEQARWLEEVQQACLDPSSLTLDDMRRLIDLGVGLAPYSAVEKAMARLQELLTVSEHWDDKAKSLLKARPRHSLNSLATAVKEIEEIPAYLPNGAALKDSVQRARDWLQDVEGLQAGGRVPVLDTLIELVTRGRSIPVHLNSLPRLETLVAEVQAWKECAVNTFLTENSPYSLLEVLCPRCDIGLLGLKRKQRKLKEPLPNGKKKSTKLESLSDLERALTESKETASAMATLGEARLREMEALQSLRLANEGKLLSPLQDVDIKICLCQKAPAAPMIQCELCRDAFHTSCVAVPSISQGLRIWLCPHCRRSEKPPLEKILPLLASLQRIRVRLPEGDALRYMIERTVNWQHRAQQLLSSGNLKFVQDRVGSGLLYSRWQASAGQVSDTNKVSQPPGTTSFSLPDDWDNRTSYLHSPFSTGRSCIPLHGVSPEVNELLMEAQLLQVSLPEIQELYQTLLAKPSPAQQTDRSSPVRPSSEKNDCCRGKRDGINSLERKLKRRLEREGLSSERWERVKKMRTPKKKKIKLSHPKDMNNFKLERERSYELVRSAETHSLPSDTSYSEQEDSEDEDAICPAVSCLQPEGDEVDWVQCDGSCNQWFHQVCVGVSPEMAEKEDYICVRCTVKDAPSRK
How it was run: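 Compound dilutions met 200 nM (final) KDM5BΔAP for 10 min at room temperature before substrate addition. The substrate mix held 12.5 µM H3K4me3 with cofactors 25 µM α-ketoglutarate and 50 µM Fe²⁺. NADH signal gain over 30 min defined activity.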
In the case of CNC(=O)[C@@H](c1ccccc1)N1CCC[C@H]1C(=O)NCCc1c[nH]c2ccccc12, the Potency is reported as inconclusive: 28.2 µM [inhibitor, partial curve].
For Cc1ccccc1C(=O)NCc1nnc2cc(-c3nc(C4CC4)no3)ccn12, the Potency was active: 28.2 µM.
In the case of O=C(O)C1(Cc2ccccc2F)CCCN(c2ncccn2)C1 (stereo not drawn), the “activity change, negative = inhibition” value is reported as inactive: -13.8%.
Cc1cccc(C(=O)N2CCC3(CC2)c2nc[nH]c2CCN3CC(C)C)n1 was tested, and the Potency was inconclusive: 28.2 µM [inhibitor, partial curve, poor fit].
COc1ccc(NC(=O)[C@@H]2COCC(=O)N2Cc2ccc(OC)c(OC)c2)cc1Cl was tested, and the “activity change, negative = inhibition” value was inactive: -15.8%.
In the case of C#CCNC(=O)C1CCCN1c1nc2ncccc2o1 (stereo not drawn), the Potency is reported as inconclusive: 25.1 µM [inhibitor, partial curve, poor fit].
CN1CCN(c2oc(-c3ccccc3)nc2C#N)CC1 was tested, and the Potency was inconclusive: 28.2 µM [inhibitor, partial curve, poor fit].
CC(O)c1ccc(-c2ccc(CNCc3ccco3)o2)cc1 (stereo not drawn) was tested, and the Potency was inconclusive: 31.6 µM [inhibitor, single point].
In the case of c1ccc2c(CNC3CCCCC3)cccc2c1, the “activity change, negative = inhibition” value is reported as inactive: -21.5%.
COc1cc(SC)c(OC)cc1CN1CCC2(CC(=O)NC2=O)C1 (stereo not drawn) was tested, and the Potency was inconclusive: 31.6 µM [inhibitor, partial curve].
For COCCN(Cc1cccs1)S(=O)(=O)c1ccc(C(=O)O)cc1, the “activity change, negative = inhibition” value was inactive: 5.18%.
For O=C(C[C@H]1NC(=O)c2ccccc2NC1=O)Nc1cccc2ncccc12, the Potency was inconclusive: 39.8 µM [inhibitor, single point].
With O=C(NCCc1ccc(Cl)cc1)c1nc(-c2cccc(C(F)(F)F)c2)c2ccccn12 the Potency was active: 25.1 µM.
In the case of O=c1n(-c2cccc(Cl)c2)nc2n1CCN(Cc1ccc(F)cc1)C2, the Potency is reported as inconclusive: 17.8 µM [inhibitor, single point].
With CCn1nc(C(=O)Nc2ccc(OC)c(OC(F)F)c2)c2ccccc2c1=O the “activity change, negative = inhibition” value was inactive: -8.54%.
O=C(CCCCCCCC(=O)NNC(=O)c1ccc(Cl)cc1)NNC(=O)c1ccc(Cl)cc1 was tested, and the Potency was inconclusive: 39.8 µM [inhibitor, single point].
O=C(NCCN1CCOCC1)c1cc(S(=O)(=O)Nc2ccccc2F)c(Cl)cc1Cl was tested, and the Potency was inconclusive: 39.8 µM [inhibitor, single point].
CCC(CC)C(NC(C)=O)c1cccs1 (stereo not drawn) was tested, and the “activity change, negative = inhibition” value was inactive: -4.72%.
For CN=C(NC)NCc1cccc(Br)c1, the “activity change, negative = inhibition” value was inactive: 3.91%.
With COc1cccc(N2C(=O)NC(=NC3CCCC3)C23CCCN([S+](=O)([O-])c2cccs2)C3)c1 (stereo not drawn) the “activity change, negative = inhibition” value was inactive: 28.9% [at 115 µM].
COc1cccc(-c2cnc([C@@H]3COCCN3Cc3ccccc3)[nH]2)c1 was tested, and the “activity change, negative = inhibition” value was inactive: -0.275% [at 86.2 µM].
In the case of O=C(C1CCCN(Cc2ccc(Br)cc2)C1)N1CCCCC1 (stereo not drawn), the Potency is reported as inconclusive: 3.16 µM [inhibitor, full curve, poor fit].
Cc1cccc(C(=O)NC2CCCCC2C)c1 (stereo not drawn) was tested, and the “activity change, negative = inhibition” value was inactive: -5.53%.
In the case of CN(C)S(=O)(=O)NC(=O)c1cc(Br)ccc1F, the “activity change, negative = inhibition” value is reported as inactive: 25.8%.
In the case of N#Cc1nc(COc2ccc(Br)cc2)oc1NCc1ccncc1, the Potency is reported as inconclusive: 22.4 µM [inhibitor, single point].
For Cc1ccc(CC(=O)NC(C)c2ccncc2)cc1C (stereo not drawn), the “activity change, negative = inhibition” value was inactive: 27.3%.
For Cc1ccc(Cn2c(SCc3ccc(C(=O)O)cc3)nc3cccnc32)cc1, the Potency was inconclusive: 39.8 µM [inhibitor, single point].
With COc1cccc(CC(=O)Nc2c(C(=O)N3CCN(c4ccccc4)CC3)oc3ccccc23)c1 the Potency was inconclusive: 31.6 µM [inhibitor, single point].
For COc1cc(F)ccc1-c1nc(N2CCOCC2)cc2c1CN(CC1CC1)C2=O, the Potency was active: 35.5 µM.
In the case of COc1cc(OC)c2[nH]c(C(=O)OC(C)C(=O)c3ccccc3)cc2c1 (stereo not drawn), the Potency is reported as inconclusive: 25.1 µM [inhibitor, partial curve, poor fit].
In the case of O=C(Cn1c(=O)n(Cc2ccco2)c(=O)c2sc3ccccc3c21)Nc1ccc(F)cc1F, the Potency is reported as inconclusive: 4.47 µM [inhibitor, full curve, poor fit].
For COc1ccc(C(=O)N(Cc2ccco2)Cc2ccccc2F)cc1Cl, the Potency was inconclusive: 14.1 µM [inhibitor, partial curve, poor fit].
For O=C(NCC(c1ccco1)S(=O)(=O)c1ccc(Cl)cc1)c1ccc(C(F)(F)F)cc1 (stereo not drawn), the Potency was inconclusive: 28.2 µM [inhibitor, single point].
For O=C(NCc1ccc(Cn2cncn2)cc1)c1ccccc1F, the “activity change, negative = inhibition” value was inactive: 18.2%.
In the case of CN1CCC(C(=O)c2ccccc2)C1=O (stereo not drawn), the “activity change, negative = inhibition” value is reported as inactive: 23.1%.
For Cc1cc(N2CCN(C)CC2)nc2ccc(NC(=O)Nc3ccc(F)cc3)cc12, the Potency was inconclusive: 3.16 µM [inhibitor, full curve, poor fit].
With COc1ccc(NC(C)c2nnc(-c3cccs3)o2)c(OC)c1 (stereo not drawn) the Potency was inconclusive: 22.4 µM [inhibitor, partial curve, poor fit].
With CC(C)CCC(CCNCc1cccs1)C1CCOC(C)(C)C1 (stereo not drawn) the “activity change, negative = inhibition” value was inactive: -27.1%.
With CNc1ccc2c(cc1=O)[C@@H](NC)CCc1cc(OC)c(OC)c(OC)c1-2 the “activity change, negative = inhibition” value was inactive: -4.58%.
For COc1ccc(OC)c(NC(=O)c2cccc3c2CCN3C(=O)c2ccc(F)cc2)c1, the Potency was inconclusive: 39.8 µM [inhibitor, single point].
With CCN(c1ccccc1)c1ncnc2c1cnn2-c1ccc(OC)cc1 the Potency was inconclusive: 39.8 µM [inhibitor, single point].
With CCNC(=O)N[C@H]1CC[C@]2(C)CC[C@@H]([C@H](C)C(=O)NCc3ccco3)[C@H](O)[C@H]2[C@@H]1C the Potency was inconclusive: 44.7 µM [inhibitor, partial curve, poor fit].
With CCOc1ccc(-c2cc3nc(C4CCN(C(=O)OC(C)(C)C)CC4)c(C(=O)Nc4cccc(Cl)c4C)cn3n2)cc1 the Potency was inconclusive: 28.2 µM [inhibitor, partial curve, poor fit].
For Cn1cc(CCCC(=O)NCc2ccc(F)cc2)c2ccccc21, the Potency was inconclusive: 17.8 µM [inhibitor, partial curve, poor fit].
For O=C(O)C[C@@H]1CCN(C(=O)COc2ccccc2)C[C@@H]1CCN1CCN(c2ccccn2)CC1, the Potency was inconclusive: 25.1 µM [inhibitor, partial curve].
With CN(Cc1ccccc1)S(=O)(=O)c1ccc(NC(=O)CN2CCN(c3ccc(O)cc3)CC2)cc1 the Potency was inconclusive: 20 µM [inhibitor, partial curve, poor fit].
For Cc1c(CC(=O)N2CCN(C(=O)C3COc4ccccc4O3)CC2)c(=O)oc2c(C)c(O)ccc12 (stereo not drawn), the Potency was inconclusive: 15.8 µM [inhibitor, partial curve, poor fit].
CNC(=O)CCn1ncc2cc(OCc3ccccc3-c3cccc(OC)c3F)ccc21 was tested, and the Potency was inconclusive: 35.5 µM [inhibitor, single point].
For Cc1cccc2nc(-c3ccc(Cl)s3)c(Nc3ccc4c(c3)OCCO4)n12, the Potency was inconclusive: 31.6 µM [inhibitor, partial curve, poor fit].
CCCCNC(=O)Cc1csc2nc(C)c(-c3cc(C)n(-c4cccc(C)c4C)n3)c(=O)n12 was tested, and the Potency was active: 28.2 µM.
In the case of CCOc1ccc(NC(=O)Cn2cc(C(=O)C3CC3)c3ccccc32)cc1, the Potency is reported as inconclusive: 28.2 µM [inhibitor, single point].
O=C(NCc1ccc(F)cc1)N1CCC(N2CC3CC(C2)[C@H]2CCCC(=O)N2C3)CC1 (stereo partly drawn) was tested, and the “activity change, negative = inhibition” value was inactive: -0.215%.
For Cc1ccc(C)c(N2N=C(C(=O)Nc3ccccc3S(=O)(=O)N3CCCCC3)CCC2=O)c1, the Potency was inconclusive: 35.5 µM [inhibitor, partial curve, poor fit].
In the case of O=C(Cc1ccccc1)NCC(=O)N1CCCCCCNC(=O)CC1c1ccccc1 (stereo not drawn), the “activity change, negative = inhibition” value is reported as inactive: 2.37%.
With CN(C)C(=O)CN1CCCN(Cc2nc3ccccc3o2)CC1 the “activity change, negative = inhibition” value was inactive: 4.86%.
With Cc1ccc2c(CNCCc3ccco3)c(C(=O)O)n(Cc3ccc(F)cc3)c2c1 the Potency was inconclusive: 22.4 µM [inhibitor, partial curve, poor fit].
CCOc1ccc(CN(CCc2ccc3c(c2)OCO3)Cc2cc(OC)cc(OC)c2)cc1 was tested, and the Potency was inconclusive: 22.4 µM [inhibitor, partial curve, poor fit].
CCC(=O)Nc1cc(C)c(O)c(-c2nc3ccccc3o2)c1 was tested, and the “activity change, negative = inhibition” value was inactive: 14.2%.
Cc1cccc(-c2nc3cc(NC(=O)CC(C)C)ccc3o2)c1 was tested, and the Potency was inconclusive: 5.01 µM [inhibitor, full curve, poor fit].
COc1ccc(NC(=O)CCCc2nnc3n(C(C)C)c(=O)c4sccc4n23)cc1Cl was tested, and the Potency was inconclusive: 39.8 µM [inhibitor, single point].
With CC(=O)Nc1ccc(NC(=O)CSc2nc3c([nH]c4ccccc43)c(=O)n2-c2ccccc2F)cc1 the Potency was inconclusive: 31.6 µM [inhibitor, single point].
In the case of Cc1cc(=O)n(CC(=O)Nc2ccc(Cl)cc2)c(N2CCc3ccccc3C2)n1, the Potency is reported as inconclusive: 11.2 µM [inhibitor, partial curve].
In the case of CCCN(CC)c1ccc(/C=N/NC(=S)Nc2ccc(C)cc2)cc1, the Potency is reported as inconclusive: 2 µM [inhibitor, full curve, poor fit].
With CC1(C)CC(=O)C2=C(C1)c1c(ccc3ccccc13)NC2c1ccc(C(=O)O)cc1 (stereo not drawn) the Potency was inconclusive: 28.2 µM [inhibitor, partial curve, poor fit].
For O=C(NC1CC1)c1cc2occc2n1Cc1ccccc1F, the “activity change, negative = inhibition” value was inactive: -14%.
COC(=O)CCn1c(SC(C)C(=O)c2ccc(F)c(F)c2)nc2ccccc2c1=O (stereo not drawn) was tested, and the “activity change, negative = inhibition” value was inactive: 13.5%.
For COc1cc(Cl)ccc1C(=O)N[C@@H]1CN(S(C)(=O)=O)C[C@H]1CN(C)C, the “activity change, negative = inhibition” value was inactive: -6.64%.
COc1ccc(-c2nnc3n2CCN(C(=O)c2cccc(OC)c2)C3)cc1 was tested, and the Potency was inconclusive: 28.2 µM [inhibitor, single point].
